# Laboratory results taken from PMC5021524.
# These are yes or no findings as the source states them, for the method shown. For some of these results: Binding seen in cells or lysates may run through a third protein. Some binding calls cover weakened binding; strength is not graded here. Tags and fused reporters may be left off the sequences shown.
# B1: endogenous Xenopus egg Lnp (protein, UniProt Q6DFJ8 1-440)
# chain: MGALLAKWRAKPSTVEVLEKMEKDIQSLEEFRDKNQKLRKIWVARLFFYSTILYILTSLTVYLWYLPGGMTARLLTTLLFLLFPVLIWFVRTLLILWFSRRTERNNDALELLKAEKKKILEEVMEKETYKAAKIILERFDPDSRKIKELELPVPGPPITPRPGQDLRQRTAAQRNISVSTPVNPGQGSPQVSGLLAATPALQRDTSAPGGPPERSVQPTPQSNILQRRPGSPATAVSGMALHPPGPPLARPILPRERGAMDRVIEYLVGDGPQNRYALICQQCFSHNGMALKEEFEYVAFRCAYCYFLNPARKTRPQAPRLQEISFDRQRQRTDSQGSVNTLQLPAADQLENQQSPEAMEEDSPAQAEEQAIEEQVIEEQVTEEQLIEDQVIEEDSTCSEQQWEEAPDDTEKDNLPAAEVNPSLPAPAANESEESFMETE
# B2: His6-cytLnp (domain or fragment, UniProt Q6DFJ8 99-440)
# chain: SRRTERNNDALELLKAEKKKILEEVMEKETYKAAKIILERFDPDSRKIKELELPVPGPPITPRPGQDLRQRTAAQRNISVSTPVNPGQGSPQVSGLLAATPALQRDTSAPGGPPERSVQPTPQSNILQRRPGSPATAVSGMALHPPGPPLARPILPRERGAMDRVIEYLVGDGPQNRYALICQQCFSHNGMALKEEFEYVAFRCAYCYFLNPARKTRPQAPRLQEISFDRQRQRTDSQGSVNTLQLPAADQLENQQSPEAMEEDSPAQAEEQAIEEQVIEEQVTEEQLIEDQVIEEDSTCSEQQWEEAPDDTEKDNLPAAEVNPSLPAPAANESEESFMETE
# B3: His6-cytLnp-C (domain or fragment, UniProt Q6DFJ8 239-440)
# chain: MALHPPGPPLARPILPRERGAMDRVIEYLVGDGPQNRYALICQQCFSHNGMALKEEFEYVAFRCAYCYFLNPARKTRPQAPRLQEISFDRQRQRTDSQGSVNTLQLPAADQLENQQSPEAMEEDSPAQAEEQAIEEQVIEEQVTEEQLIEDQVIEEDSTCSEQQWEEAPDDTEKDNLPAAEVNPSLPAPAANESEESFMETE
# B4: Sumo-cytLnp (domain or fragment, UniProt Q6DFJ8 99-440)
# chain: B2 chain
# B5: His6-cytLnp-N1 (domain or fragment, UniProt Q6DFJ8 99-238)
# chain: SRRTERNNDALELLKAEKKKILEEVMEKETYKAAKIILERFDPDSRKIKELELPVPGPPITPRPGQDLRQRTAAQRNISVSTPVNPGQGSPQVSGLLAATPALQRDTSAPGGPPERSVQPTPQSNILQRRPGSPATAVSG
# B6: His6-cytLnp-N2 (domain or fragment, UniProt Q6DFJ8 124-238)
# chain: MEKETYKAAKIILERFDPDSRKIKELELPVPGPPITPRPGQDLRQRTAAQRNISVSTPVNPGQGSPQVSGLLAATPALQRDTSAPGGPPERSVQPTPQSNILQRRPGSPATAVSG
# Key:
# His6-cytLnp-HA (Xenopus) [1] = molecular target: T1, His6-cytLnp-HA (Xenopus) (UniProt Q6DFJ8); test: pull-down; Xenopus light membranes incubated with 5 µM His6-cytLnp/N1/N2/C-HA, solubilized with 1% Triton X-100 in 20 mM HEPES pH 7.5, 50 mM KCl; HA agarose resin 2 hrs at 4°C; immunoblot with Xenopus Lnp antibodies; only the target purified
# T1 sequence: B2 chain
# [2] = molecular target: T2, His6-cytLnp-N1-HA (Xenopus) (UniProt Q6DFJ8); test: as above
# T2 sequence: B5 chain
# [3] = molecular target: T3, His6-cytLnp-N2-HA (Xenopus) (UniProt Q6DFJ8); test: as above
# T3 sequence: B6 chain
# [4] = molecular target: T4, His6-cytLnp-C-HA (Xenopus) (UniProt Q6DFJ8); test: as above
# T4 sequence: B3 chain
# [5] = molecular target: T5, His6-cytLnp-SBP (Xenopus) (UniProt Q6DFJ8); test: pull-down; purified His6-cytLnp and His6-cytLnp-SBP (3:1) incubated in Xenopus interphase cytosol with an energy regenerating system, without or with cyclin B∆90 (mitotic), 1 hr at room temperature; magnetic streptavidin resin 1 hr at 4°C in 20 mM HEPES pH 7.5, 100 mM KCl, 0.05% TX-100 with phosphatase inhibitors; eluted with biotin; Coomassie blue staining; both purified
# T5 sequence: B2 chain
# [6] = molecular target: T2, His6-cytLnp-N1-HA (Xenopus); test: pull-down; purified prey (His6-cytLnp, or Sumo-cytLnp / Sumo-cytLnp-E) mixed at a 5:1 ratio with HA-tagged bait for 1 hr at 4°C in 20 mM HEPES pH 7.5, 100 mM KCl, 0.05% TX-100; HA agarose resin; SDS-PAGE and Coomassie blue staining; both purified
# [7] = molecular target: T3, His6-cytLnp-N2-HA (Xenopus); test: as above
# [8] = molecular target: T4, His6-cytLnp-C-HA (Xenopus); test: as above
# His6-cytLnp (Xenopus) = His6-cytLnp (Xenopus) (UniProt Q6DFJ8); test: SEC; 400 µg of purified protein in 200 µL on a Superdex 200 column in 20 mM HEPES pH 7.5, 150 mM KCl, 1 mM DTT; both purified
# His6-cytLnp-C (Xenopus) = His6-cytLnp-C (Xenopus) (UniProt Q6DFJ8); test: as above
# His6-cytLnp-HA (Xenopus) [9] = molecular target: T1, His6-cytLnp-HA (Xenopus); test: pull-down; purified prey (His6-cytLnp, or Sumo-cytLnp / Sumo-cytLnp-E) mixed at a 5:1 ratio with HA-tagged bait for 1 hr at 4°C in 20 mM HEPES pH 7.5, 100 mM KCl, 0.05% TX-100; HA agarose resin; SDS-PAGE and Coomassie blue staining; both purified
# His6-cytLnp-N1 (Xenopus) = His6-cytLnp-N1 (Xenopus) (UniProt Q6DFJ8); test: SEC; 400 µg of purified protein in 200 µL on a Superdex 200 column in 20 mM HEPES pH 7.5, 150 mM KCl, 1 mM DTT; both purified
# His6-cytLnp-N2 (Xenopus) = His6-cytLnp-N2 (Xenopus) (UniProt Q6DFJ8); test: as above
binder,measurement,setting,value
B1,binding,His6-cytLnp-HA (Xenopus) [1],binds
same,binding,[2],no binding (tested: 5 µM)
same,binding,[3],no binding (tested: 5 µM)
same,binding,[4],binds
B2,binding,[5],binds
same,binding,[6],no binding
same,binding,[7],no binding
same,binding,[8],binds
same,binding,His6-cytLnp (Xenopus),binds
B3,binding,His6-cytLnp-C (Xenopus),binds
B4,binding,His6-cytLnp-HA (Xenopus) [9],binds
B5,binding,His6-cytLnp-N1 (Xenopus),no binding (tested: 400 µg in 200 µL)
B6,binding,His6-cytLnp-N2 (Xenopus),no binding (tested: 400 µg in 200 µL)
